Data taken from PubChem BioAssay AID540317 (National Center for Advancing Translational Sciences (NCATS), 2011).
In all, about 390,000 compounds went through this assay and about 2,200 (0.56%) were called active. The shares of active, inactive and inconclusive entries below differ from those in the screen. Calls follow the shape of the dose curve; as a rule, active = well fitted inhibition curve with a large enough effect; inconclusive = small, poorly fitted or top-dose-only effect; inactive = no such curve, though single readings can be large or run the other way. A potency beside an inconclusive call is a rough fit, not a confirmed value.

target: Chromobox protein homolog 1 (Homo sapiens) (UniProt P83916); test: HTS for Inhibitors of HP1-beta Chromodomain Interactions with Methylated Histone Tails; details: AlphaScreen HP1-beta / biotin-H3K9me3 peptide binding; series mostly up to 114 µM; activity change, negative = inhibition: at the top concentration; also: nearly all actives have a fitted effect of over 70% in size
Chain of UniProt P83916 (P83916 whole entry, looked up): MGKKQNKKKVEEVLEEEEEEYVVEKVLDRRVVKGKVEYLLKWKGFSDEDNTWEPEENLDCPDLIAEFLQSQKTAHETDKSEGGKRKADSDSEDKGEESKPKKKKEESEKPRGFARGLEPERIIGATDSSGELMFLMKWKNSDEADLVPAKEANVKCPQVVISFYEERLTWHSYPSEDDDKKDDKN
Procedure, shortened: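 Compound inhibition of the preformed complex between 50 nM HP1-beta and 50 nM biotinylated H3K9me3 peptide was read by AlphaScreen. Buffer was PBS pH 7.4 with 0.01% Tween-20. Incubations ran 30 min at room temperature, with 10 ug/mL donor/acceptor beads.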
Potency is read from the fitted curve at half-maximal effect; tags tell the direction and shape of the fitted curve.

Row | Compound | Potency | activity change, negative = inhibition
1 | Cc1coc2c1C(=O)C(=O)c1c-2ccc2c(C)cccc12 | inconclusive: 15.8 µM [inhibitor, full curve] | 
2 | CCN1C(=O)/C(=C\c2cn(CCC#N)nc2-c2ccc(F)cc2)SC1=S | inconclusive: 14.1 µM [inhibitor, full curve] | 
3 | CCCOc1ccc(-c2nc(C#N)c(N3CCN(C)CC3)o2)cc1 | inconclusive: 44.7 µM [inhibitor, partial curve] | 
4 | COc1ccccc1OCC(=O)n1cc(C(=O)c2cc(Cl)cc(Cl)c2O)cn1 | inconclusive: 39.8 µM [inhibitor, single point] | 
5 | COc1ccccc1NS(=O)(=O)c1ccc(N/N=C/c2c(C)nn(-c3ccccc3)c2N2CCCC2)c([N+](=O)[O-])c1 | inconclusive: 12.6 µM [inhibitor, partial curve, poor fit] | 
6 | COc1cc(OC)c(C2CC(=O)N3CN(c4ccccc4)CSC3=C2C#N)cc1OC (centres undefined) | inconclusive: 3.55 µM [inhibitor, full curve, poor fit] | 
7 | COc1ccc(C2=NN(C(N)=S)C(c3ccccc3)C2)cc1 (centres undefined) |  | inactive: -5.58%
8 | COc1ccc(CCNCC(O)COc2cccc(Br)c2)cc1OC (centres undefined) | inconclusive: 56.2 µM [inhibitor, partial curve, poor fit] | 
9 | Cc1cc(C)nc(NN2C(=O)C=CC2=O)n1 | inconclusive: 25.1 µM [inhibitor, full curve] | 
10 | C/C=C/c1ccc(OCCn2cncn2)c(OC)c1 | inconclusive: 50.1 µM [inhibitor, single point] | 
11 | Cc1cc(N2C(=O)C(O)=C(C(=O)c3ccco3)C2c2ccccc2F)no1 (centres undefined) |  | inactive: 13.4%
12 | COc1cc(/C=N/NC(=O)c2cccc(NC(=O)c3ccccc3C)c2)ccc1O |  | inactive: -4.87%
13 | O=C(NCCc1ccccc1)C(=O)NCC1OCCCN1S(=O)(=O)c1cccs1 (centres undefined) |  | inactive: 39.8%
14 | COc1cccc(Nc2nc(N)c([N+](=O)[O-])c(NCc3ccccc3)n2)c1 | inconclusive: 44.7 µM [inhibitor, partial curve] | 
15 | CS/C(=N\NC(N)=O)c1ccccc1 |  | inactive: 22.9%
16 | O=C(COc1ccc2ccccc2c1)N/N=C/c1ccccn1 | inconclusive: 44.7 µM [inhibitor, partial curve] | 
17 | C/C(=C\C(=S)Nc1ccccc1)Nc1ccc2ccccc2c1 | inconclusive: 56.2 µM [inhibitor, partial curve, poor fit] | 
18 | C=CCN(CC=C)CCOc1ccc(OC(C)C)cc1 | inconclusive: 56.2 µM [inhibitor, single point] | 
19 | O=C(c1ccc2ccccc2c1)N1CCN(c2ccc([N+](=O)[O-])c(N3CCOCC3)c2)CC1 | inconclusive: 44.7 µM [inhibitor, partial curve, poor fit] | 
20 | N=C1/C(=C/c2coc3ccccc3c2=O)C(=O)N=C2SC(c3ccco3)=NN12 |  | inactive: -32.9%
21 | COc1ccc(C(=O)NCC(c2ccc3c(c2)OCO3)N2CCN(c3ccccc3F)CC2)cc1 (centres undefined) |  | inactive: 20% [at 57 µM]
22 | CC1CC(C)CN(c2ccc(C(=O)NCc3ccc4c(c3)OCO4)cc2[N+](=O)[O-])C1 (centres undefined) | inconclusive: 35.5 µM [inhibitor, partial curve] | 
23 | COc1cccc(N=Nc2c(=O)[nH]n3c(=O)c4c([nH]c23)CCC4)c1 | inconclusive: 39.8 µM [inhibitor, full curve] | 

Row | Compound | Potency | activity change, negative = inhibition
24 | CC/C(C)=N/Nc1ccc(S(=O)(=O)N2CCCC2)cc1[N+](=O)[O-] | inconclusive: 70.8 µM [inhibitor, partial curve] | 
25 | O=C(Nc1nc(-c2ccccn2)cs1)c1ccc([N+](=O)[O-])o1 | inconclusive: 14.1 µM [inhibitor, full curve] | 
26 | C=CC(=O)Nc1ccc(CN2C(=O)N(c3c(Cl)c(OC)cc(OC)c3Cl)Cc3cnc(NCCCCN(CC)CC)nc32)cc1 | inconclusive: 50.1 µM [inhibitor, partial curve, poor fit] | 
27 | CC(NC(=O)Cc1ccsc1)c1ccc(F)cc1 (centres undefined) |  | inactive: -5.12%
28 | CSCCOC(=O)c1[nH]c2c(c1C)C(=O)CC(c1ccco1)C2 (centres undefined) | inconclusive: 35.5 µM [inhibitor, full curve] | 
29 | O=C(CNCc1ccc(Cl)cc1)Nc1cc(S(=O)(=O)N2CCCC2)ccc1Cl | inconclusive: 14.1 µM [inhibitor, full curve, poor fit] | 
30 | COc1ccccc1NS(=O)(=O)c1ccc(NN=C2CCCC2)c([N+](=O)[O-])c1 | inconclusive: 15.8 µM [inhibitor, partial curve, poor fit] | 
31 | OCc1ccccc1SSc1ccccc1CO | inconclusive: 20 µM [inhibitor, full curve] | 
32 | COc1cc(C(=S)N2CCCCC2)ccc1OCC(=O)N1CCCC1 |  | inactive: 1.51%
33 | CC(=O)c1ccc(NC(=O)COC(=O)c2ccccc2N=Nc2ccc(N(C)C)cc2)cc1 | active: 31.6 µM | 
34 | Cc1ccccc1NC(=S)N1CCC(NC(=O)c2ccco2)CC1 |  | inactive: -19.3%
35 | CN(C)c1ccc(NC2=C(Cl)C(=O)c3ccccc3C2=O)cc1 | active: 5.01 µM | 
36 | CCc1ccc(S(=O)(=O)Nc2ccc(O)c3ccccc23)cc1 | inconclusive: 70.8 µM [inhibitor, single point] | 
37 | CCOc1cc(/C=C2\C(=O)N(Cc3ccco3)C(C)=C2C(=O)OC)ccc1O | active: 20 µM | 
38 | Cc1ccc(CN2CCN(c3ccccc3)CC2)o1 | inconclusive: 20 µM [inhibitor, full curve] | 
39 | CCOC(=O)/C(C#N)=C1/C=CN(Cc2ccccc2)C=N1 |  | inactive: -0.722%
40 | CCC(=O)OCCNc1cc(Sc2nc3ccccc3s2)c2nonc2c1[N+](=O)[O-] | inconclusive: 15.8 µM [inhibitor, partial curve] | 
41 | Cc1ccc(NC(=O)CN2C(=O)N/C(=C/c3ccccc3OCc3cccc(C(=O)O)c3)C2=O)cc1 | inconclusive: 50.1 µM [inhibitor, partial curve, poor fit] | 
42 | CN1c2ccsc2/C(=N/Nc2ccccc2)CS1(=O)=O | inconclusive: 50.1 µM [inhibitor, partial curve, poor fit] | 
43 | CCCCOc1ccc(C(=O)N(Cc2ccc(N(C)C)cc2)Cc2ccco2)cc1 | inconclusive: 17.8 µM [inhibitor, full curve] | 
44 | COc1ccc(C(=O)Cc2cc(OC)c(OC)cc2[N+](=O)[O-])c(OC)c1 |  | inactive: 5.71%
45 | COc1ccccc1OCC(=O)NCC1CCCN(Cc2cnn(C)c2C)C1 (centres undefined) |  | inactive: 23.9%
46 | CCN(CC)c1ccc(/C=N/N2CCN(Cc3ccccc3)CC2)cc1 | inconclusive: 15.8 µM [inhibitor, full curve] | 

Row | Compound | Potency | activity change, negative = inhibition
47 | CCOc1ccc(C=NN2CCCCCC2)cc1OCC | inconclusive: 17.8 µM [inhibitor, partial curve, poor fit] | 
48 | C=CCN1C(=O)C2(OCCCO2)c2cc(C)ccc21 |  | inactive: 14.6%
49 | COc1ccc(OCc2nnc3n2N=C(c2ccccc2)C(CC(=O)O)S3)cc1 (centres undefined) | inconclusive: 7.94 µM [inhibitor, partial curve, poor fit] | 
50 | Cc1ccc([N+](=O)[O-])c(OCCCN2CCC(Cc3ccccc3)CC2)c1 | inconclusive: 56.2 µM [inhibitor, single point] | 
51 | Clc1ccc(CSc2ncnc3nc[nH]c23)cc1 |  | inactive: 43.6%
52 | Cc1ccc(C2c3sc(=O)[nH]c3SC3C4CC(C5C(=O)N(C(C)C(=O)O)C(=O)C45)C23)cc1 (centres undefined) | inconclusive: 39.8 µM [inhibitor, single point] | 
53 | Cc1ccccc1OCCNc1cc(N2CCN(CCO)CC2)ccc1[N+](=O)[O-] | inconclusive: 56.2 µM [inhibitor, single point] | 
54 | CC[n+]1ccc(C)c2cc(P(=O)(c3ccccc3)c3ccccc3)ccc21 | inconclusive: 89.1 µM [inhibitor, partial curve, poor fit] | 
55 | O=C1c2c([N+](=O)[O-])cc([N+](=O)[O-])cc2S(=O)N1Cc1ccccc1 (centres undefined) | inconclusive: 25.1 µM [inhibitor, single point] | 
56 | O=[N+]([O-])c1cc(Cc2ccccc2)cc(C=Nc2ccc(N3CCOCC3)cc2)c1O | inconclusive: 56.2 µM [inhibitor, single point] | 
57 | CC(C)c1ccccc1NC(=O)COC(=O)c1cccnc1 |  | inactive: 37.6%
58 | O=C(CC1C(=O)N(c2ccc(F)cc2)C(=O)N1Cc1ccc2c(c1)OCO2)Nc1ccc(Cl)cc1 (centres undefined) |  | inactive: 39.6%
59 | CN1CCN(S(=O)(=O)c2ccc(N(C)Cc3ccc(C(F)(F)F)cc3)c([N+](=O)[O-])c2)CC1 | inconclusive: 35.5 µM [inhibitor, partial curve] | 
60 | CN1C(=O)/C(=C2\SC(N3CCCCCC3)=NC2=O)c2ccccc21 | inconclusive: 39.8 µM [inhibitor, partial curve, poor fit] | 
61 | COc1ccc(NC(=O)CN2CCc3ccccc3C2)cc1 | inconclusive: 25.1 µM [inhibitor, single point] | 
62 | CCCCn1cnc2cc(NCc3ccc(OCC)cc3)ccc21 | inconclusive: 44.7 µM [inhibitor, partial curve] | 
63 | O=C(OCC(=O)N1CCCC1)c1cnc(Cl)c(Cl)c1 |  | inactive: 15.9% [at 57 µM]
64 | C[C@@H](NC(=O)/C(C#N)=C/c1ccc(O)c(O)c1)c1ccccc1 | inconclusive: 3.55 µM [inhibitor, full curve, poor fit] | 
65 | COc1ccccc1Nc1n[nH]c(=S)s1 | active: 22.4 µM | 
66 | Oc1cc(CNC2CCCCC2)c(O)cc1CNC1CCCCC1 | active: 14.1 µM | 
67 | O=C(CCCn1c(SCC(=O)c2ccc(F)cc2)nc2ccccc2c1=O)NCc1ccccc1 |  | inactive: 26.4%
68 | COc1ccc(OC)c(CNc2ccc3c(c2)CCC3)c1 | inconclusive: 50.1 µM [inhibitor, partial curve] | 
69 | COC(=O)c1ccc(N=Nc2c(C)[nH]n(-c3ccccc3)c2=O)cc1 | inconclusive: 2.82 µM [inhibitor, full curve, poor fit] | 
